# Reference: publication PMC7256200 (Frontiers in Microbiology, 2020)
# T1: AtYoeB toxin (Atu2017) from Agrobacterium tumefaciens, GST-His tag removed (Agrobacterium tumefaciens strC58, UniProt A9CID9 1-89)
# T1 sequence: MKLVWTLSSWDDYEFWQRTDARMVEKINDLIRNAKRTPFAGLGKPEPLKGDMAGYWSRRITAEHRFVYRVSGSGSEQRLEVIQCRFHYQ
# B1: His-AtYefM antitoxin (Atu2018) from Agrobacterium tumefaciens, pET15b construct, His tag kept (natural protein)
# chain: MANVRFTEFRQNFATHFDRVLETRAPLLVTRQGKEAVVVLAEGEYESMQETLHLLSNPANASRLRASMGELERGDTIERDPTEE
# Biological target: T1, AtYoeB toxin (Atu2017) from …
# Assay: BLI
binder,measurement,value
B1,Kd,653 ± 300 pM
